The text below walks through data of paper PMC4336329 (PLoS ONE, 2015).

The whole screen tested about 310,000 compounds, of which about 2,200 (0.71%) showed an effect of 50% or more. The effect is printed as a negative number. This is one part of the list.

Chain of human ether-à-go-go-related gene (hERG) potassium channel (Q12809 whole entry, looked up): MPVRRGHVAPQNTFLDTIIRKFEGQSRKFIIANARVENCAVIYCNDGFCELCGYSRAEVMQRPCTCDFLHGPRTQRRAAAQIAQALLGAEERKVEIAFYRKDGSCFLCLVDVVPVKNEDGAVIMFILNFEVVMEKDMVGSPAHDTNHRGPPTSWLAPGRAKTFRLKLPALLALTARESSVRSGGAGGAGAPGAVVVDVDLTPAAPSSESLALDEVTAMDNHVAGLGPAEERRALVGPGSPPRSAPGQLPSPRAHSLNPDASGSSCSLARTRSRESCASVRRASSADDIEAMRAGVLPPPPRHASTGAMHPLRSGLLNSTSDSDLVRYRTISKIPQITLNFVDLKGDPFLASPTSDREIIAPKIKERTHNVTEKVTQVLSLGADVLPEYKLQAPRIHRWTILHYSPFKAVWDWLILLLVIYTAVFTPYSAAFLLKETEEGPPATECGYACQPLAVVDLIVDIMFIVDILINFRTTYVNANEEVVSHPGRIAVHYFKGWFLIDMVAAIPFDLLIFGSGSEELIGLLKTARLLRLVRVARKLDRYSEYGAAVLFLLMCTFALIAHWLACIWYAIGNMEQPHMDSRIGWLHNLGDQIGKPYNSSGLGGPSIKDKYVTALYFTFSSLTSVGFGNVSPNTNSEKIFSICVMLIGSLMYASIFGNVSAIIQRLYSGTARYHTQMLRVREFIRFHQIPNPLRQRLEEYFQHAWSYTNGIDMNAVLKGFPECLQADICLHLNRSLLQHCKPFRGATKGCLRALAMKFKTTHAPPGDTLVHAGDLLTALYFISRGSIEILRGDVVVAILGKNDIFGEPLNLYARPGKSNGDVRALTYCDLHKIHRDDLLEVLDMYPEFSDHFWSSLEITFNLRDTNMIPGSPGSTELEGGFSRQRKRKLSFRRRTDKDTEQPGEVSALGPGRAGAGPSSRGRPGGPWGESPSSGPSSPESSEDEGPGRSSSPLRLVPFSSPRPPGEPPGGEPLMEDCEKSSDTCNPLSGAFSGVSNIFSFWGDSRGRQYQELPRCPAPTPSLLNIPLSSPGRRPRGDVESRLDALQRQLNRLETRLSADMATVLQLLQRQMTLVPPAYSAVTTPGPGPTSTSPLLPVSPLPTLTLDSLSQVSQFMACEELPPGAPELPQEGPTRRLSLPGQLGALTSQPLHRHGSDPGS

The test has as its target human ether-à-go-go-related gene (hERG) potassium channel (human, UniProt Q12809). As to the kind of experiment: primary screen, population patch clamp on CHO cells stably expressing hERG.
Consider `CC(OC(=O)C1CCN(c2ccc(C(F)(F)F)cn2)CC1)C(=O)Nc1ccc(S(N)(=O)=O)cc1` (centres unmarked), for which the “hERG current change (%, negative = inhibition) at 1uM” value is recorded as 6.71%. For the compound `Cc1cc(C(=O)Nc2ccc(N3CCOCC3)c(Cl)c2)c(C)o1`, the “hERG current change (%, negative = inhibition) at 1uM” value amounted to 8.45%. As to `C=C(C)C(=O)Nc1cccc(C2=NOC3(C2)C[C@@H](C(N)=O)N(C(=O)/C=C/C=C/C)C3)c1` (some centres unmarked), the “hERG current change (%, negative = inhibition) at 1uM” value amounted to 9.54%. For the compound `Cn1cnc([N+](=O)[O-])c1NCc1ccccc1`, the “hERG current change (%, negative = inhibition) at 1uM” value was determined as 7.78%.

Consider `O=C(Cn1cc(SCc2ccc(F)cc2)c2ccccc21)N1CCOCC1`, for which the “hERG current change (%, negative = inhibition) at 1uM” value is given as -2.9%. Take `Cn1nnnc1SCC(=O)Nc1nc2ccccc2s1`: the “hERG current change (%, negative = inhibition) at 1uM” value was -1.17%.

On to `N#C/C(=C\c1cccnc1)c1ccccn1`, for which the “hERG current change (%, negative = inhibition) at 1uM” value was determined as 8.43%. In the case of `CCOc1cc(N2CCOCC2)c(OCC)cc1NC(=O)COC(=O)COc1ccc(C#N)cc1`, the “hERG current change (%, negative = inhibition) at 1uM” value is listed as 3.78%. As for `CC(C)(C)c1ccc2c(c1)C(=O)c1ccccc1C2=O`, the “hERG current change (%, negative = inhibition) at 1uM” value turned out to be 12.8%.

In the case of `CSc1ncc(/C=C2/C(=O)NC(=O)N(C)C2=O)cn1`, the “hERG current change (%, negative = inhibition) at 1uM” value is 15.7%. Turning to `COc1ccc(/C=C/C(=O)NC(=S)N2CCOCC2)cc1`, the “hERG current change (%, negative = inhibition) at 1uM” value was 10.7%. The same measure for `CCCc1[nH]nc2c1C(c1ccncc1)C(C#N)=C(N)O2` (centres unmarked): 12.1%; for `Fc1cccc(Nc2nc3ccccc3n3nnnc23)c1`: 7.24%; for `Cc1cc(NCCN2CCOCC2)n2nc(C)c(-c3ccc(Cl)cc3)c2n1`: 0.983%. Regarding `CN(C)C(=O)Oc1ccc(Cl)c2cccnc12`, the “hERG current change (%, negative = inhibition) at 1uM” value was 3.04%.

As for `COc1cc(S(=O)(=O)N(Cc2ccco2)C2CCCC2)ccc1-n1cnnn1`, the “hERG current change (%, negative = inhibition) at 1uM” value is reported as 3.92%. The same measure for `Cc1cc(C)cc(NC(=O)CCNS(=O)(=O)c2cc(Br)cnc2N)c1`: 12.7%.

In the case of `O=C(CCNC(=O)N1CCn2c1nc1ccccc12)NCc1ccccc1Cl`, the “hERG current change (%, negative = inhibition) at 1uM” value amounted to 5.35%. For `COc1cc(Cl)c(C)cc1NC(=O)COC(=O)c1cnc(C)cn1`, the “hERG current change (%, negative = inhibition) at 1uM” value amounted to 12%. The same measure for `CCn1c(Cc2cccn2C)nnc1SCC(=O)c1ccc(C)cc1`: -2.37%; for `O=C(CCN1CCOCC1)Nc1ccc(F)cc1`: 0.918%. Regarding `COC(=O)c1c(-c2ccc(OC)cc2)oc2ccccc12`, the “hERG current change (%, negative = inhibition) at 1uM” value came to 7.43%. To `CCOC(=O)C1=C(COc2ccccc2)NC(=O)NC1c1ccc(Br)cc1` (centres unmarked) belongs 9.77%.

As for `COc1cc(C(=O)N/C(=C\c2cn(C)c3ccccc23)C(=O)NCCCN2CCOCC2)cc(OC)c1OC`, the “hERG current change (%, negative = inhibition) at 1uM” value was found to be 3.23%. The same measure for `COc1ccc(-c2csc(N3CCSCC3)n2)cc1`: 12.8%; for `CCOC(=O)c1sc(NC(=O)C2C3C=CC(C3)C2C(=O)O)nc1C` (centres unmarked): 18.7%; for `CC(Sc1nnc(Cc2cccs2)n1C1CCCCC1)C(=O)N1CCc2ccccc21` (centres unmarked): 8.67%.

`O=C(COc1ccccc1-c1ccccc1)N/N=C/c1ccccn1`: the “hERG current change (%, negative = inhibition) at 1uM” value stood at 12.6%.

As to `c1ccc(-c2csc(Nc3cccnc3)n2)cc1`, the “hERG current change (%, negative = inhibition) at 1uM” value stood at 5.86%. The same measure for `N#CC1=C(N)N(c2ncn[nH]2)C2=C(C(=O)CCC2)C1c1ccccc1` (centres unmarked): 15.1%. As for `COc1cc(NC(=O)COC(=O)/C=C/c2ccc(O)c(OC)c2)cc(OC)c1`, the “hERG current change (%, negative = inhibition) at 1uM” value came out at 13.9%. The same measure for `O=C(COc1ccc(-n2ccnc2)cc1)Nc1cccc(F)c1`: -13%; for `Cc1cc(F)ccc1S(=O)(=O)N1CCCOC1CNC(=O)C(=O)NCc1ccc2c(c1)OCO2` (centres unmarked): -0.396%. For `O=C(CCSc1nc2cc(Cl)ccc2o1)N1CCOCC1`, the “hERG current change (%, negative = inhibition) at 1uM” value is given as 1.58%. With `COc1ccc(-c2ccc(=O)n(Cc3ccccc3)n2)cc1`, the “hERG current change (%, negative = inhibition) at 1uM” value was found to be 14.5%. For `CCOc1ccc(=O)n(-c2ccccc2)n1`, the “hERG current change (%, negative = inhibition) at 1uM” value stood at 2.02%. The same measure for `Cc1cc(NC(=O)CSC2=NS(=O)(=O)c3cc(Cl)ccc3N2)no1`: 16.3%; for `O=C(Nc1ccon1)c1cccc(Cl)c1`: 9.8%; for `O=c1n(S(=O)(=O)c2cccc3cccnc23)c2ccccc2n1S(=O)(=O)c1cccc2cccnc12`: 15.7%.

On to `NS(=O)(=O)c1ccc(CCNC(=O)COC(=O)CCc2ccccc2)cc1`, for which the “hERG current change (%, negative = inhibition) at 1uM” value is reported as 8.63%. For `Cc1cccc(NC(=O)CN2C(=O)N/C(=C\c3ccccc3OCc3ccc(C(=O)O)cc3)C2=O)c1`, the “hERG current change (%, negative = inhibition) at 1uM” value came to 19.9%. As for `CCc1ccccc1NC(=O)CNC(=O)c1cc(C2CC2)nc2c1cnn2C(C)C`, the “hERG current change (%, negative = inhibition) at 1uM” value amounted to 5.3%.

`CN(C)CCCNC(=S)NCC(c1ccc(Cl)cc1Cl)c1c[nH]c2ccccc12` (centres unmarked): the “hERG current change (%, negative = inhibition) at 1uM” value amounted to 9.62%.

Consider `COc1ccc(CCC(=O)N2CCN(C(=O)c3ccccc3)CC2)cc1`, for which the “hERG current change (%, negative = inhibition) at 1uM” value is recorded as 14.6%. The same measure for `Cc1cc(C)cc(NC(=O)Nn2cnnc2)c1`: 19.6%.

`CCCN1CCN(S(=O)(=O)c2c(C)[nH]c(C)c2C(=O)N2CCCCC2)CC1`: the “hERG current change (%, negative = inhibition) at 1uM” value is on record as -0.989%. Consider `COc1ccc(C)cc1NC(=S)N1CCN(S(C)(=O)=O)CC1`, for which the “hERG current change (%, negative = inhibition) at 1uM” value is 16.8%. To `Cc1cccc(NC(=S)NCCN(C2CCCCC2)C2CCCC2)c1` belongs -1.59%; to `CN(Cc1ccccc1)C(=O)CSc1nc2cc(C(=O)N3CCC(C(N)=O)CC3)ccc2c(=O)n1-c1ccccc1`, 12.4%.

For `COC(=O)c1ccccc1NC(=S)N(Cc1ccc2c(c1)OCO2)Cc1cc2cc(OC)ccc2[nH]c1=O`, the “hERG current change (%, negative = inhibition) at 1uM” value is listed as 11.8%. The same measure for `Cc1cc(=O)n2nc(N3CCCC(C(=O)NCc4ccccc4Br)C3)sc2n1` (centres unmarked): 10.2%; for `Cc1ccc(C)c(N2CCN(C(=O)CSc3ccsc3[N+](=O)[O-])CC2)c1`: -2.33%. To `COc1ccc(-n2c(C)cc(/C=C3\SC(=O)NC3=O)c2C)cc1` belongs 0.884%.

Consider `CCOC(=O)c1c(NC(=O)COC(=O)c2cnccn2)sc(C(=O)NC)c1C`, for which the “hERG current change (%, negative = inhibition) at 1uM” value worked out at 5.68%. `CCn1c(SCC(=O)N/N=C(\C)c2ccncc2)nnc1-c1ccccc1`: the “hERG current change (%, negative = inhibition) at 1uM” value was determined as 5.74%.

`CC(=O)NCc1ccc(S(=O)(=O)N/N=C/c2ccc(N(C)C)cc2)cc1`: the “hERG current change (%, negative = inhibition) at 1uM” value amounted to 8.99%.

On to `CCOc1cc(C(=O)Nc2cccc(OCC(=O)N3CCOCC3)c2)cc(OCC)c1OCC`, for which the “hERG current change (%, negative = inhibition) at 1uM” value was 17.4%.

Take `O=C(Nc1ccc(N=Nc2ccccc2)cc1)c1cccc(Cl)c1`: the “hERG current change (%, negative = inhibition) at 1uM” value stood at 0.671%.

Regarding `COc1ccc(CCNC(=S)NCc2ccc(Cl)c(Cl)c2)cc1OC`, the “hERG current change (%, negative = inhibition) at 1uM” value is listed as 20.5%. To `CC1=NN(c2ccccc2)C(=O)/C1=C\C=C1/N(C)c2ccccc2C1(C)C` belongs 10.9%. Regarding `COc1ccc(/C=C/C(=O)NCCCN2CCCC2)cc1`, the “hERG current change (%, negative = inhibition) at 1uM” value is -4.15%. To `COc1ccccc1NC(=S)NCc1ccc(S(N)(=O)=O)cc1` belongs 6.8%; to `O=C(NCc1nnc(SCC(=O)N2CCCC2)o1)c1ccco1`, -7.61%; to `CSc1nc2nc3c(cn2n1)C(=O)CC(c1ccccc1)C3` (centres unmarked), 13.2%. As to `CC(=O)Oc1ccc(/C=N/NS(=O)(=O)c2ccccc2)cc1`, the “hERG current change (%, negative = inhibition) at 1uM” value is 9.84%. `CNC(=O)c1cc(S(=O)(=O)NCc2ccncc2)ccc1OC`: the “hERG current change (%, negative = inhibition) at 1uM” value came to 3.18%. For `C[N+](C)(CCCCCC[N+](C)(C)CCCN1C(=O)c2cccc3cccc(c23)C1=O)CCCN1C(=O)c2cccc3cccc(c23)C1=O.[Br-]`, the “hERG current change (%, negative = inhibition) at 1uM” value came to 15.5%. The same measure for `CNc1nc(NCc2ccccc2)nc(N)c1[N+](=O)[O-]`: 8.04%; for `CCCn1nnnc1-c1cccc(Cl)c1`: -5.05%. The same measure for `CCCNC(=O)c1ccc2c(=O)n3c(-c4ccc(C)cc4)csc3nc2c1`: 3.09%; for `Cc1cccc(OCc2nnc(SCC(=O)Nc3ccc(N4CCOCC4)cc3)o2)c1`: 13%; for `Cc1ccccc1OCCNc1cc(N2CCNCC2)ccc1[N+](=O)[O-]`: 17.5%. The same measure for `Cc1cc(C)c(C(N)=O)c(NC(=O)Nc2ccccc2)n1`: 4.56%; for `CSc1ccc(S(=O)(=O)NCCSc2ccccn2)cc1`: 7.96%; for `CC(C)n1c(=O)[nH][nH]c1=S`: 9.94%. `Cc1ccc(/C=C2\SC(=S)N(CCC(=O)Nc3cccnc3)C2=O)cc1`: the “hERG current change (%, negative = inhibition) at 1uM” value stood at 11.5%.

For the compound `COc1ccc(S(=O)(=O)N2CCC(C(=O)Nc3cccc(C(C)=O)c3)CC2)cc1`, the “hERG current change (%, negative = inhibition) at 1uM” value is -2.68%.

As for `CCOC(=O)c1ccc(NC(=O)N2CCCCCC2)cc1`, the “hERG current change (%, negative = inhibition) at 1uM” value is recorded as 3.19%. The same measure for `CC(C)CN1CCN(Cc2cn(C)c3ccccc23)CC1CCO` (centres unmarked): 9.98%; for `CCCc1nc2c(c(=O)c3ccccc3n2C)c(=O)n1-c1cc(C)cc(C)c1`: 5.88%; for `C=C(C)Cn1c(C)cc(C)c(S(=O)(=O)c2ccc(C)cc2)c1=O`: 9.47%.

In the case of `COc1cc(OC)cc(C(=O)Nc2ccccc2C(=O)NC2CC2)c1`, the “hERG current change (%, negative = inhibition) at 1uM” value stood at 16.9%. In the case of `COc1ccc(S(=O)(=O)Cc2ccc(C(=O)NC3CCCCCC3)o2)cc1`, the “hERG current change (%, negative = inhibition) at 1uM” value is reported as 21.7%. The same measure for `O=C(NCc1ccccc1)N(Cc1cc2cc3c(cc2[nH]c1=O)OCO3)CC1CCCO1` (centres unmarked): 11.5%. To `COc1cccc(-c2ccc(C#N)c(=O)[nH]2)c1` belongs 9.87%; to `CC(C)c1nnc(NC(=O)CCC(=O)N2CCN(C3CCCCC3)CC2)s1`, 6.31%. With `COC(=O)C1CCN(CC(=O)Nc2ccc(OC)c(Cl)c2)CC1`, the “hERG current change (%, negative = inhibition) at 1uM” value came to 9.01%.

For `Cn1nccc1C(=O)OCC(=O)Nc1ccc(S(N)(=O)=O)cc1`, the “hERG current change (%, negative = inhibition) at 1uM” value is 21.2%.

Regarding `CCCc1cc(C(=O)NC(C)C2CCCO2)cs1` (centres unmarked), the “hERG current change (%, negative = inhibition) at 1uM” value was found to be 5.72%.
